Laboratory results as given in the supplement of paper PMC3334620.
Over roughly 33,000 sequences, “E-score (-0.5 to 0.5)” has its median near -0.013; the highest 2% begin near 0.3. This is one part of the list.

target: T1, Msn1 (UniProt P22148); test: PBM E-score (8-mer binding enrichment) (E-score (-0.5 to 0.5)); higher = stronger / more preferred TF binding; most listed sequences are background and not binding sites; conditions: protein concentration: 200 nM; construct: GST-full length
T1 sequence: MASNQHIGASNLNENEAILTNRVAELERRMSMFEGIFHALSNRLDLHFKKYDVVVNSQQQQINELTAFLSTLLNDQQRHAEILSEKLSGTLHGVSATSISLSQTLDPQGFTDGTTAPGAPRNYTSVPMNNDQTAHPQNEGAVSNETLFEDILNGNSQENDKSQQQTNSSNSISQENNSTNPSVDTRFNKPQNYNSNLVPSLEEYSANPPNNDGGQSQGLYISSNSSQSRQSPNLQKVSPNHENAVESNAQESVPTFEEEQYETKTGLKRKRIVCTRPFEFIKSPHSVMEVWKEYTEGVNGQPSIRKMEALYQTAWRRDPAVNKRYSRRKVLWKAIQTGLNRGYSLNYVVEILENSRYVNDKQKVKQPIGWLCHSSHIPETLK
Method: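 Universal 'all 10-mer' protein binding microarrays (Agilent AMADID 015681) probed with GST-tagged S. cerevisiae TFs (full-length or DBD) made by in vitro transcription/translation (PURExpress), about 100-200 nM. Bound TF was detected with fluorescent anti-GST. Each ungapped 8-mer (which stands for itself and its reverse complement) is scored by the PBM enrichment score (E-score), a modified Wilcoxon-Mann-Whitney statistic from -0.5 to +0.5, computed with the Universal PBM Analysis Suite. Scale: above 0.35 generally sequence-specific binding.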

Row | Sequence | PBM E-score
1 | ATCTACAT | 0.161
2 | CCCACTTC | -0.00598
3 | ATATCCAG | -0.0569
4 | TAAACATA | 0.157
5 | CCGGTCGA | 0.0772
6 | AAACATAA | -0.163
7 | TACAAGTA | 0.0835
8 | GCACCGGC | -0.0347
9 | AGGGCGTA | -0.109
10 | ATCCTACG | -0.179
11 | CGTGCCGA | -0.0647
12 | CGGTAGGA | -0.196
13 | GCCGCCGA | 0.064
14 | ATTCACGA | 0.0369
15 | AGGGATAA | 0.0683
16 | GACCCTGC | -0.142
17 | ATTTGTTG | 0.177
18 | AGGCAAAG | 0.0212
19 | AATGGAGA | 0.0612
20 | ACTAGTCT | -0.0559
21 | CGTAAGTC | 0.132
22 | ACCATTCG | -0.0321

Row | Sequence | PBM E-score
23 | ATTGCAAA | 0.122
24 | CGGTTAGC | -0.143
25 | CGTTAATA | -0.0173
26 | ATTAAGTA | 0.091
27 | GGGACAAC | 0.375
28 | GGGAAAAC | -0.204
29 | GCCGGCCC | -0.102
30 | CAAGCTTA | -0.021
31 | GACTGTCC | -0.0339
32 | TATGACAA | 0.408
33 | CAATCAGG | -0.0196
34 | CAGCTACA | -0.127
35 | GCCTTGCC | -0.196
36 | GACTAAGC | 0.0345
37 | CTTTAAAA | 0.134
38 | AATCTGAG | -0.0808
39 | CAATACGA | 0.0135
40 | ACGGTCTG | -0.0966
41 | GTGCCCAA | -0.0493
42 | GAGTATAC | 0.0339
43 | ACCTCCAA | -0.138
44 | ATGGAAAA | 0.141

Row | Sequence | PBM E-score
45 | ACGGGTCA | -0.199
46 | CCTGATCG | -0.163
47 | AAATTGAT | 0.153
48 | ATTTGTGA | -0.0129
49 | TCCTGCCA | -0.00769
50 | GAGCTAAA | -0.0435
51 | ATCAATGC | -0.0193
52 | AACATCCA | 0.0442
53 | GAAAAGGA | 0.108
54 | ATAGCCAG | -0.138
55 | AAACCCAG | -0.0478
56 | ACATCAAC | 0.144
57 | CCACCAAG | -0.155
58 | AATAACAC | -0.0777
59 | GACCAAGC | 0.0159
60 | AGGCTGAG | -0.114
61 | CCAAAGTA | -0.0844
62 | GAAGTTAA | -0.153
63 | CAAACCAC | -0.0607
64 | ACATCAAT | 0.0372
65 | CGCTGTGC | -0.125
66 | CAACATCC | -0.257

Row | Sequence | PBM E-score
67 | CGACAAGC | -0.0394
68 | CCGGGAGC | -0.192
69 | AGGGACCT | -0.0323
70 | ATGATCTG | 0.0873
71 | AAATACAT | 0.0274
72 | ACAACTGC | 0.125
73 | TAACGACA | 0.276
74 | GTAGCTCA | -0.0179
75 | ATCAAAGA | 0.0616
76 | GATTCGGC | 0.116
77 | CCCTAGAG | -0.0793
78 | GCCTATCC | -0.182
79 | AGCATGTC | 0.318
80 | GGATAACA | 0.0272
81 | ACGTTCAA | 0.0815
82 | ATATTAGG | 0.229
83 | AGTACCCC | -0.245
84 | AGGATGGA | 0.00513
85 | ATTGCAAT | 0.0804
86 | ATCGACAA | 0.256
